Data as given in PubChem BioAssay AID504332 (National Center for Advancing Translational Sciences (NCATS), 2011).
Values joined by “and” are separate entries in the source; they are usually repeats but may differ in a detail not shown here. Identical values can stand only once. Out of some 350,000 compounds screened, about 31,000 (8.9%) were called active. Inconclusive results, whose numbers are uncertain, are shown with a selection of clear calls. The call rests on the fitted dose curve; in most records, active means well fitted inhibition curve with a large enough effect; inconclusive means small, poorly fitted or top-dose-only effect; inactive means no such curve, though single readings can be large or run the other way. Where the call is inconclusive, the potency comes from a doubtful curve fit. Some compounds were tested as several samples or in several runs, with calls that do not always agree.
Further: nearly all actives have a fitted effect of over 75% in size.
On the % scale 0 is the no-effect control and ±100 the full control effect; potency means the concentration at half of the fitted maximal effect; tags describe the fitted curve by direction and shape.

What follows are molecules tested against Histone-lysine N-methyltransferase EHMT2 (Homo sapiens) (UniProt Q96KQ7) (assay: qHTS Assay for Inhibitors of Histone Lysine Methyltransferase G9a). Conditions: G9a H3K9 monomethylation, AlphaScreen, 2 h; activity, negative = inhibition: at 59 µM (top of the series) unless noted.
Chain of UniProt Q96KQ7 (Q96KQ7 whole entry, looked up): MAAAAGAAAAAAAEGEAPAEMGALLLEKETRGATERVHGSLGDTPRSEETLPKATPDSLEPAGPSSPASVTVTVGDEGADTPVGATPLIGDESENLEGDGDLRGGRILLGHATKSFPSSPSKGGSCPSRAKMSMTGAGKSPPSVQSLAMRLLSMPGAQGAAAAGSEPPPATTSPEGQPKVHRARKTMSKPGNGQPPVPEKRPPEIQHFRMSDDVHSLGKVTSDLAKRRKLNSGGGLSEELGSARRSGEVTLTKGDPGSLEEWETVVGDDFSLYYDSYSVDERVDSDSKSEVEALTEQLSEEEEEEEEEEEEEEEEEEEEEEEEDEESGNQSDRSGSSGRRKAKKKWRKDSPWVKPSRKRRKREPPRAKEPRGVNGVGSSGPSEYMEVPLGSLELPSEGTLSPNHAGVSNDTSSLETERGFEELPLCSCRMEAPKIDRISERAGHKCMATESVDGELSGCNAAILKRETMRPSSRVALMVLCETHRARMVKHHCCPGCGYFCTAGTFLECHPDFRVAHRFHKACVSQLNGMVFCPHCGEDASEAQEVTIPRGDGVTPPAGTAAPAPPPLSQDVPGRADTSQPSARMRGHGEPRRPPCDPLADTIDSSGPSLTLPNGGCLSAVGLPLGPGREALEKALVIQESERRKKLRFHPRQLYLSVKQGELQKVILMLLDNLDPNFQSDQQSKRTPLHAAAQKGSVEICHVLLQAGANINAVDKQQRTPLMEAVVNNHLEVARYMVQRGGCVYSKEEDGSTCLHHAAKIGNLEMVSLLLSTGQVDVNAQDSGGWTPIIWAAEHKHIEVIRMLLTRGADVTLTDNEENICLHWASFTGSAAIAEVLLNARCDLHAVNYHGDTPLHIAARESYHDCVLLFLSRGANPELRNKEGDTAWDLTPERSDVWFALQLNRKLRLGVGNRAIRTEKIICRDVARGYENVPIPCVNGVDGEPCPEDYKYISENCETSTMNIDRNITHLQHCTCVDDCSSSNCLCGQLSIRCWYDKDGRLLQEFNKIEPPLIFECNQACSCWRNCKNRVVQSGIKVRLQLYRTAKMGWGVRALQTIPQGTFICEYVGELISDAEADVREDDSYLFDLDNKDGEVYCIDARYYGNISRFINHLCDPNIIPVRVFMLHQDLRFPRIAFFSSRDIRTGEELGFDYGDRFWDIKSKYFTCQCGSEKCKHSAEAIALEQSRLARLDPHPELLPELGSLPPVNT
Procedure, shortened: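 G9a (20 nM) preincubated 15 min RT with compounds, then 500 nM biotinylated H3K9 peptide and 20 uM SAM added; 2 h RT reaction. Monomethyl-H3K9 product detected by AlphaScreen with anti-H3K9me1 antibody, streptavidin donor and anti-rabbit IgG acceptor beads.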
For `O=C(CCl)c1ccc(Oc2ccc(C(=O)CCl)cc2)cc1`, the Potency was inconclusive: 0.794 µM [inhibitor, full curve, poor fit]. `CC[N+](CC)(CC)CCOc1cccc(OCC[N+](CC)(CC)CC)c1OCC[N+](CC)(CC)CC` was tested, and the Potency was active: 355 nM and active: 5.32 µM. In the case of `Cc1c(OC(=O)N(C)C)ccc2c1O/C(=C\c1ccco1)C2=O`, the Potency is reported as active: 31.6 µM. `COc1cccc(C(=O)N2C[C@H]3C[C@@H](C2)c2cccc(=O)n2C3)c1` was tested, and the activity, negative = inhibition was inactive: 1.87% [at 12.7 µM]. `CCOc1cc(CNCCc2c[nH]c3ccccc23)cc(Cl)c1OCC` was tested, and the Potency was inconclusive: 25.1 µM [inhibitor, single point]. `CCCCn1c(NS(=O)(=O)c2ccccc2)c(C(=O)OCC)c2nc3ccccc3nc21` was tested, and the Potency was inconclusive: 10 µM [inhibitor, partial curve, poor fit]. In the case of `CC(=NCc1ccco1)c1c(O)n(Cc2ccccc2)c(=O)[nH]c1=O`, the Potency is reported as inconclusive: 50.1 µM [inhibitor, partial curve, poor fit]. In the case of `COc1ccc(CCNCc2ccccn2)cc1OC`, the activity, negative = inhibition is reported as inconclusive: -58.4% [inhibitor]. With `CCc1nc(N2CCNCC2)c(C#N)c2c1CSC(C)(C)C2` the Potency was inconclusive: 79.4 µM [inhibitor, single point]. In the case of `Cc1ccc(F)cc1NC(=O)c1ccc(Cn2nc(N3CCN(c4ccccc4)CC3)ccc2=O)o1`, the Potency is reported as inconclusive: 5.62 µM [inhibitor, partial curve, poor fit]. With `Cc1ccc(-n2c(O)c(/C=N/N3CCOCC3)c(=O)[nH]c2=S)cc1` the Potency was inconclusive: 28.2 µM [inhibitor, single point]. In the case of `CCn1nc(-c2cccs2)nc2c(=O)n(C)c(=O)nc1-2`, the Potency is reported as active: 17.8 µM. For `CCN(CC)S(=O)(=O)c1cccc(N=Nc2c(O)n(CC)c(=S)n(CC)c2=O)c1`, the activity, negative = inhibition was inconclusive: -56.7% [inhibitor] [at 12.7 µM]. In the case of `CCCCn1c(O)c(C=NCc2ccc3c(c2)OCO3)c(=O)[nH]c1=O`, the “activity, negative = inhibition” value is reported as inactive: -29.7% [at 102 µM]. With `CCOc1ccc(Cl)cc1CNCCc1ccccc1F` the “activity, negative = inhibition” value was inactive: 18.8% [at 102 µM]. With `O=C1NC(=O)N(Cc2ccc(F)cc2)C(=O)/C1=C\c1ccc(N2CCCC2)cc1` the Potency was active: 44.7 µM. `O=[N+]([O-])c1ccc(NCCO)c2ncccc12` was tested, and the Potency was inconclusive: 89.1 µM [inhibitor, single point]. In the case of `CC(=NC1CCN(Cc2ccccc2)CC1)c1c(O)n(C)c(=O)n(C)c1=O`, the Potency is reported as inconclusive: 44.7 µM [inhibitor, partial curve]. For `O=C(C1CCCN(S(=O)(=O)c2cccc3nsnc23)C1)N1CCN(c2cccc(Cl)c2)CC1` (stereo not drawn), the Potency was inconclusive: 11.2 µM [inhibitor, partial curve]. In the case of `c1cnc(N2CCCC3(CCNCC3)C2)nc1`, the activity, negative = inhibition is reported as inactive: -15% [at 12.7 µM]. `CN1C(=O)C(=Cc2ccccc2OCCOc2ccc([N+](=O)[O-])cc2)C(=O)N(C)C1=O` was tested, and the Potency was active: 10 µM. `CN1CCN(CCOC2c3ccccc3CSc3ccc(Cl)cc32)CC1` (stereo not drawn) was tested, and the Potency was inconclusive: 35.5 µM [inhibitor, single point]. `CC1(C)C2CC=C(CN3CCC(O)CC3)C1C2` (stereo not drawn) was tested, and the Potency was inconclusive: 6.31 µM [inhibitor, partial curve, poor fit]. With `C=CCn1c(O)c(C(CC)=Nc2ccccc2NC(C)=O)c(=O)[nH]c1=O` the Potency was active: 1.41 µM. In the case of `CCC(C)N1C(=O)NC(=O)C2(Cc3c(ccc4ccccc34)N(C)C2)C1=O` (stereo not drawn), the Potency is reported as active: 1.78 µM. For `O=c1c(C=Nc2cccnc2Cl)c(O)n(CCCCl)c(=O)n1C1CCCCC1`, the Potency was inconclusive: 89.1 µM [inhibitor, single point]. With `COCCCNC(=O)c1c(NC(=O)c2ccccc2Cl)n(Cc2ccccc2)c2nc3ccccc3nc12` the “activity, negative = inhibition” value was inactive: -46.1% [at 102 µM]. With `CN(C)CC#CCn1c2ccccc2c2ccccc21` the Potency was inconclusive: 89.1 µM [inhibitor, single point]. For `COCCNC(=O)Cn1cc(C(=O)c2ccccc2F)c2ccccc21`, the Potency was inconclusive: 89.1 µM [inhibitor, single point]. With `N[C@@H](Cn1cc(I)c(=O)[nH]c1=O)C(=O)O` the Potency was active: 35.5 µM. With `C/C(Cl)=C/CC1(CN2CCCC2=O)C(=O)NC(=O)NC1=O` the Potency was inconclusive: 89.1 µM [inhibitor, single point]. `Cn1c(O)c(C=Nc2ccc(Cl)cc2)c(=O)n(C)c1=O` was tested, and the Potency was inconclusive: 50.1 µM [inhibitor, partial curve]. In the case of `CCN(C1CCCCC1)S(=O)(=O)c1ccc(S(=O)(=O)N(CC(=O)Nc2ccccc2)C2CC2)cc1`, the Potency is reported as inconclusive: 89.1 µM [inhibitor, partial curve, poor fit]. With `CCOc1ccc(-n2c(O)c(C=NCCN(CC)CC)c(=O)[nH]c2=O)cc1` the Potency was inconclusive: 20 µM [inhibitor, partial curve, poor fit]. For `CC1(c2ccc(Cl)cc2Cl)OCC(Cn2cncn2)O1` (stereo not drawn), the Potency was inconclusive: 56.2 µM [inhibitor, partial curve, poor fit]. With `CN(C)C(=O)Oc1cccc2c(OC(=O)N(C)C)cccc12` the Potency was inconclusive: 89.1 µM [inhibitor, single point]. `O=c1c(O)c(-c2ccc(O)c(O)c2)oc2cc(O)cc(O)c12` was tested, and the Potency was active: 28.2 µM and active: 12.6 µM. With `CO[C@@H]1C[C@@H](C[C@H]2CC[C@H](C)[C@@H]([C@@H](C)C(=O)O)O2)O[C@]2(O[C@](C)([C@H]3CC[C@@](C)(C4OC([C@H]5O[C@@](O)(CO)[C@H](C)C[C@@H]5C)C[C@@H]4C)O3)C[C@H]2C)[C@@H]1C` (stereo partly drawn) the Potency was inconclusive: 0.708 µM [inhibitor, partial curve, poor fit]. For `O=C(N/N=C/c1c(O)n(-c2ccccc2)c(=O)[nH]c1=O)c1ccncc1`, the “activity, negative = inhibition” value was inactive: -2.01%. `COCCNC(=O)Cn1cc(/C=C2\C(=O)NC(=O)N(c3cccc(C)c3C)C2=O)c2ccccc21` was tested, and the Potency was inconclusive: 1 µM [inhibitor, single point]. In the case of `CCn1c(O)c(C(c2ccccn2)c2c(O)n(CC)c(=S)[nH]c2=O)c(=O)[nH]c1=S`, the Potency is reported as inconclusive: 11.2 µM [inhibitor, full curve, poor fit]. For `Clc1ccc2sc(C3CCNCC3)nc2c1`, the Potency was active: 44.7 µM. With `Cc1o[nH]c(=O)c1CC(N)C(=O)O` (stereo not drawn) the Potency was active: 21.2 µM. For `CC(C)C(=O)Nc1ccc([N+](=O)[O-])c(C(F)(F)F)c1`, the Potency was active: 2.51 µM. With `CCCCc1ccc(NC(=O)c2cccn(Cc3ccc(Cl)cc3)c2=O)cc1` the “activity, negative = inhibition” value was inactive: 57.7%. In the case of `CCN(CC)P(=O)(Nc1ccc([N+](=O)[O-])cc1)c1c(C)nn(CCC#N)c1NC(=O)c1ccc(Cl)cc1` (stereo not drawn), the Potency is reported as inconclusive: 25.1 µM [inhibitor, single point]. `CCCCn1c(C)c(C(=O)OCC)c2c(CN3CCOCC3)c(O)ccc21` was tested, and the Potency was inconclusive: 7.08 µM [inhibitor, single point]. For `CC(=O)Nc1ccc(N=Cc2c(O)n(Cc3ccco3)c(=O)[nH]c2=O)cc1`, the Potency was active: 50.1 µM. `NC1=C([N+](=O)[O-])C(c2ccc3c(c2)OCO3)c2c(c3ccccc3oc2=O)O1` (stereo not drawn) was tested, and the activity, negative = inhibition was inconclusive: -75.7% [inhibitor]. `CC(C)(C)C(=O)Cn1c(NCCCl)nc2ccccc21` was tested, and the Potency was active: 39.8 µM. In the case of `CCCCCCOc1ccc(CN2CCN(CC)CC2)cc1`, the Potency is reported as active: 56.2 µM. For `C[C@@H]1C[C@@H]2O[C@H]2/C=C\C=C\C(=O)Cc2c(Cl)c(O)cc(O)c2C(=O)O1`, the activity, negative = inhibition was inconclusive: -59.3% [inhibitor]. `Cc1cccc(OCC(=O)N2CCN(Cc3ccc4c(c3)OCO4)CC2)c1` was tested, and the Potency was active: 10 µM. In the case of `N[C@H]1C[C@H]1c1ccccc1`, the activity, negative = inhibition is reported as inactive: -42.9% [at 12.7 µM]. In the case of `O=C1/C(=C\c2ccc(Cl)cc2Cl)N2CCC1CC2`, the Potency is reported as inconclusive: 89.1 µM [inhibitor, single point]. With `Cc1[nH]c2ccc(OC(F)(F)F)cc2c1CCNCc1ccc(Cl)cc1` the Potency was inconclusive: 89.1 µM [inhibitor, single point]. With `CCOC(=O)Nc1ccc(NCc2ccc(F)cc2)nc1N` the Potency was active: 562 nM and active: 1.78 µM and active: 1.19 µM. For `CCN(CC)C(=O)N[C@@H]1C=C2c3cccc4[nH]cc(c34)C[C@H]2N(C)C1`, the Potency was inconclusive: 6.31 µM [inhibitor, partial curve]. With `C[C@H]1O[C@H]1P(=O)(O)O` the Potency was “inactive”. In the case of `Nc1ccc(N2CCN(Cc3ccccc3Cl)CC2)c(Cl)c1`, the activity, negative = inhibition is reported as inconclusive: -83% [inhibitor]. For `CCOc1ccc(CC2C(=O)NC(=O)N(c3ccc(CC)cc3)C2=O)cc1` (stereo not drawn), the Potency was inconclusive: 63.1 µM [inhibitor, partial curve, poor fit]. `CC(=C1C(=O)c2ccccc2C1=O)N1CCN(CCN=Cc2c(O)n(C)c(=O)n(C)c2=O)CC1` was tested, and the Potency was inconclusive: 3.16 µM [inhibitor, partial curve, poor fit]. With `COc1cc(CNCCc2c[nH]c3ccccc23)cc(OC)c1` the Potency was active: 31.6 µM. In the case of `CN(C)C(=O)Oc1ccc(OCc2cccc[n+]2C)cc1`, the Potency is reported as inconclusive: 35.5 µM [inhibitor, single point]. In the case of `CCN(CC)c1ccc(N=Cc2c(O)n(CCc3ccc(OC)c(OC)c3)c(=O)[nH]c2=O)cc1`, the Potency is reported as active: 7.08 µM. With `CCC(=O)Nc1nc2ccccc2n1CCN(C)C` the Potency was active: 31.6 µM. `O=C1/C(=C/c2cccnc2)N2CCC1CC2` was tested, and the Potency was inconclusive: 39.8 µM [inhibitor, single point]. In the case of `O=C1NC(=O)C(=Cc2ccc(-c3ccc(F)cc3O)o2)C(=O)N1`, the Potency is reported as active: 7.08 µM.
